Measured values published in PubChem BioAssay AID1508642 (National Center for Advancing Translational Sciences (NCATS), 2021).
The whole screen tested about 43,000 compounds, of which about 200 (0.47%) were called active. About 12% were inconclusive and are not listed. The call rests on the fitted dose curve; in most records, active means well fitted cell-killing curve with a large enough effect; inconclusive means small, poorly fitted or top-dose-only effect, or effect the other way; inactive means flat fitted curve, though single readings scatter. Some of the results follow.

Experiment: Cell viability qHTS assay in S16 Pmp22-F2sN cells; further: nearly all actives have a fitted effect of over 65% in size
Details: S16 Pmp22-F2sN Schwann cells viability, CellTiter-Glo, 24 h; series mostly up to 57.5 µM; activity change, negative = cytotoxicity: at the top concentration
Procedure, shortened: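 S16 Pmp22-F2sN Schwann cells (500-1,000/well) in phenol-red-free DMEM with 10% FBS received 23 nL compound by pin tool for 24 h at 37 °C. Viability was then read as CellTiter-Glo luminescence after 15 min at room temperature.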
On the % scale 0 is the no-effect control and ±100 the full control effect.

SMILES	activity change, negative = cytotoxicity
COc1ccc(CNc2n[nH]c(-c3ccco3)n2)cc1OC	inactive: -1.91%
CCc1ccc(Nc2ncnc3sc4c(c23)CCCC4)cc1	inactive: 5.17%
COc1cc(NC(=O)Cn2c(=O)n(Cc3ccccc3Cl)c(=O)c3cc(OC)c(OC)cc32)cc(OC)c1	inactive: 7.85%
Cc1ccc(-n2ncc(C(=O)N3CCN(c4ncccn4)CC3)c2C2CCN(C(=O)OC(C)(C)C)CC2)cc1	inactive: 8.64%
CCCN(CCC)S(=O)(=O)c1ccc(N2CCCCS2(=O)=O)cc1	inactive: -0.0364%
CCOc1ccc(-n2cc(-c3ccccc3)c3c(NCc4ccc(F)cc4)ncnc32)cc1	inactive: -15.3%
COc1ccc(-c2cc(C(F)(F)F)nc(SCCC(=O)Nc3ccc(O)cc3)n2)cc1	inactive: -2%
CCn1c2ccccc2c2nnc(N3CCN(c4ccc(OC)cc4)CC3)nc21	inactive: 21.7%
CCOC(=O)Cn1nc(C)c(NC(=O)COc2ccc(C)c(C)c2)c1C	inactive: 0.0241%
CCN(CC)C(=O)CSc1cn(CC(=O)N2CCCCCC2)c2ccccc12	inactive: 11.4%
Cc1ccc(NC(=O)C2CCN(c3nc4ccccc4nc3C(F)(F)F)CC2)cc1C	inactive: -1.81%
CCCCCc1ccc(-c2ccc(C(=O)Oc3ccc(C(=O)OC)cc3)cc2)nc1	inactive: 11%
Cc1ccc(S(=O)(=O)C2(C(=O)Nc3ccc(C(C)C)cc3)CC2)cc1	inactive: 3.36%
COc1ccc(CNc2nc(-c3ccc(Cl)cc3)nn2C(=O)c2ccccc2)cc1	inactive: -15%
Cc1ccc(-c2nc(-c3cc4cccc(OCc5cccc(F)c5)c4oc3=O)no2)cc1	inactive: 3.8%
CCOc1ccc(-n2c(Cc3ccccc3)nnc2SCc2nc(-c3cccs3)no2)cc1	inactive: -0.321%
COc1cccc(NC(=O)c2sc3nc(C)c(C(=O)Nc4ccc(C)cc4C)c(-c4cccs4)c3c2N)c1	inactive: 1.05%
COC(=O)CN1C(=O)C(C)(C)c2cc(S(=O)(=O)NCc3ccc(Cl)cc3)ccc21	inactive: -8.72%
Cc1ccc2scc(N3CCN(c4cccc(C(F)(F)F)c4)CC3)c(=O)c2c1	inactive: 10.4%
Cc1cc(C)cc(NC(=O)C2CCN(S(=O)(=O)c3c(C)noc3/C=C/c3ccco3)CC2)c1	inactive: 25.9%
Cc1ccn2c(Nc3c(C)cccc3C)c(-c3ccc(Cl)s3)nc2c1	inactive: -1.83%
Cc1cc(NC(=O)CSc2nc3c([nH]c4ccccc43)c(=O)n2-c2ccc(Cl)cc2)no1	inactive: 16.4%
Cc1cc(=O)n(Cc2ccccc2Cl)c2c1c(C)nn2-c1ccccc1	inactive: 1.25%
COc1ccccc1C(=O)Nc1ccc(OCc2cc(=O)n3cccc(C)c3n2)cc1	inactive: 1.62%

SMILES	activity change, negative = cytotoxicity
Cc1cccc(OCc2nnc(-c3ccccc3)o2)c1	inactive: -7.02%
CCN1CCN(C(=O)c2ccc3c(c2)N(Cc2ccc(F)cc2)C(=O)c2ccccc2S3(=O)=O)CC1	inactive: 4.89%
CCOc1ccc(NC(=O)c2oc(=O)c3ccccc3c2-c2ccc(C)cc2)cc1	inactive: 12.9%
CCn1c2c(c(=O)n3ncc(C(=O)Nc4ccc(F)cc4Cl)c13)CN(Cc1ccc(OC)cc1)CC2	inactive: -14.6%
O=C(CC1Oc2ccccc2NC1=O)NCc1ccc(F)cc1 (stereo not given)	inactive: 13.7%
COc1ccc(CC(=O)Nc2nnc3n2CCS3)cc1	inactive: 1.46%
O=c1oc2ccc(F)cc2cc1-c1nc(-c2cccs2)no1	inactive: 6.11%
Cc1ccc(CSc2nc3ccsc3c(=O)n2CCC(C)C)cc1	inactive: -5.05%
Cc1ccc(C)c(N2CCN(C(=O)Cn3c(C)c4cnn(-c5ccccc5)c(=O)c4c3C)CC2)c1	inactive: -26.5%
CCOC(=O)c1cc(OC(=O)c2cccc(Cl)c2)n(-c2ccccc2)n1	inactive: 6.59%
COc1cc(NC(=O)Cn2c(=O)nc(-c3ccccc3F)c3cc(Cl)ccc32)cc(OC)c1	inactive: -20%
CCN(C(=O)Cn1cc(C(=O)c2ccc(F)cc2)c(=O)c2ccc(C)nc21)c1cccc(C)c1	inactive: -3.41%
COC(=O)c1ccccc1NC(=O)Cn1nc(C(F)(F)F)c2c1CCCC2	inactive: -28.1%
Cc1cc(C)c2c(CC(=O)Nc3c(C(=O)c4ccc(F)cc4)oc4ccccc34)coc2c1	inactive: 1.67%
Cc1ccc2c(c1)CC(C)N2S(=O)(=O)c1nnc(NC(=O)CC(C)C)s1 (stereo not given)	inactive: -1.15%
COc1ccc(OC)c(NC(=O)CCc2c(C)nc3c(c(C)nn3C(C)(C)C)c2C)c1	inactive: 14.3%
CC(C)c1nc2ccc(C(=O)NCCCN3CCN(c4ccc(F)cc4)CC3)cc2o1	inactive: 7.57%
COc1cccc(-n2c(-c3ccc(C)cc3)cc3c2CC(C)(C)CC3=O)c1	inactive: -9.48%
COCCNC(=O)CCSc1nc(-c2ccc3c(c2)OCO3)cc(C(F)(F)F)n1	inactive: -1.07%
CCc1nnc2c(NCc3cccc(OC)c3)nc3ccccc3n12	inactive: 5.32%
COc1ccccc1N1CCN(c2cc(C)nc3c(-c4ccc(Cl)cc4)c(C)nn23)CC1	inactive: 6.47%
CN(C)c1ccc(CNC(=O)CCn2c(=O)c3cccn3c3ccc(F)cc32)cc1	inactive: 7.22%
COc1cccc(-c2[nH]c3c(c2-c2c(-n4cccc4)n(C)c(=O)[nH]c2=O)c(=O)[nH]c(=O)n3C)c1	inactive: -0.967%
COCCCNc1nc2c(c(=O)n(C)c(=O)n2C)n1Cc1ccccc1	inactive: -21.1%

SMILES	activity change, negative = cytotoxicity
COCCOC(=O)C1=C(C)N=C2SCCC(=O)N2C1c1ccc(OCc2ccccc2)c(OC)c1 (stereo not given)	inactive: 7.47%
Cc1cn(C)c(CC(=O)N2CCN(c3ccc(F)cc3)CC2)c1C(=O)O	inactive: 8.14%
Cc1ccc(NS(=O)(=O)c2ccc3c(c2)NC(=O)CCS3)cc1F	inactive: -0.334%
O=C(NCc1ccc2c(c1)CCN2C(=O)c1ccccc1)c1ccc(Br)o1	inactive: -6.78%
CCOc1ccccc1C(=O)Nc1nnc(COC)s1	inactive: -2.09%
Cc1ccc(C(=O)N2CCc3cc(CNC(=O)c4ccnn4C)ccc32)cc1	inactive: -25.1%
CCN(CC)S(=O)(=O)c1ccc2c(c1)c(=O)c(C(=O)NCc1ccccc1OC)cn2C	inactive: -14.9%
COc1cc(C2c3c(-c4c(C)cc(C)cc4O)n[nH]c3C(=O)N2CCCOC(C)C)cc(OC)c1OC (stereo not given)	inactive: -1.57%
CCc1ccccc1NC(=O)CN1C(=O)COc2ccc(S(=O)(=O)Nc3ccccc3)cc21	inactive: 0.603%
CCC1CN(S(=O)(=O)c2ccc3c(c2)NC(=O)CC(=O)N3)c2cc(Cl)ccc2O1 (stereo not given)	inactive: -22.1%
Cn1c(=O)c2c(-c3ccccc3Cl)n(Cc3ccc(Cl)cc3)cc2n(C)c1=O	inactive: 5.32%
Cc1cccc(N2CCN(C(=O)CCC(=O)NNc3nc4ccccc4c4nc(C)nn34)CC2C)c1 (stereo not given)	inactive: -11.6%
COc1ccc(S(=O)(=O)n2nc(-c3ccco3)nc2NCc2ccc(OC)c(OC)c2)cc1	inactive: 2.64%
COc1ccc(N(C(=O)c2ccc(Cl)cc2)S(=O)(=O)c2ccc(C)cc2)cc1	inactive: -17%
Cc1ccc(N2CC(c3nnc(Cc4ccccc4Cl)o3)CC2=O)cc1 (stereo not given)	inactive: -0.654%
COc1ccccc1Cc1nc2ccccc2nc1SCC(=O)Nc1ccccc1C(F)(F)F	inactive: -7.23%
COc1ccc(S(=O)(=O)c2cc3cc(OC)ccc3oc2=O)cc1	inactive: 6.29%
CCN1CCN(c2c(S(=O)(=O)c3ccc(Cl)cc3)cnc3ccccc23)CC1	inactive: -20.5%
Cc1ccc(NC(=O)Cn2c(=O)n(CCCS(=O)(=O)C3CCCCC3)c(=O)c3ccccc32)cc1F	inactive: 18%
COc1ccc(C(=O)c2oc3ccccc3c2NC(=O)COc2ccc(C)cc2)cc1	inactive: -8.75%
Cc1ccc(S(=O)(=O)c2nc(-c3ccc(F)cc3)oc2SCC(=O)c2ccccc2)cc1	inactive: -20.1%
CCc1ccc2oc(-c3cccc(NC(=O)C(C)(C)Oc4ccc(Br)cc4)c3)nc2c1	inactive: 21.7%
Cc1cc(C)cc(Nc2ncnc3onc(-c4ccc(F)cc4)c23)c1	inactive: -3.48%
CCOc1ccc(-n2cc(-c3ccccc3)c3c(N4CCC(C)CC4)ncnc32)cc1	inactive: 3.23%

SMILES	activity change, negative = cytotoxicity
CCOc1ccccc1NC(=O)C(=O)c1cc(C)n(-c2ccc(F)cc2)c1C	inactive: 11%
COc1ccc(-c2nnc(Nc3ccc(OC)c(C(N)=O)c3)c3ccccc23)cc1	inactive: -6.31%
CCS(=O)(=O)c1nc(S(=O)(=O)c2ccc(C)cc2)c(NC(C)c2ccccc2)s1 (stereo not given)	inactive: -16%
COc1ccc(Cl)cc1NC(=O)Cn1c(=O)n(CCCC(=O)NCCc2ccc(OC)c(OC)c2)c(=O)c2ccccc21	inactive: -13.4%
O=C(CCSCc1cccc(F)c1)NCc1ccccc1	inactive: 0.516%
CCOc1ccc(CNC(=O)c2cc3c(s2)-c2ccccc2OC3)cc1	inactive: 1.19%
COc1cc(NC(=O)NC(C)c2c(-n3cccc3)sc3c2CCN(C)C3)cc(OC)c1 (stereo not given)	inactive: -1.9%
COc1cccc(-n2c(SCC(=O)N3CCCc4ccccc43)nc3c([nH]c4ccccc43)c2=O)c1	inactive: 8.4%
CCc1ccc(S(=O)(=O)NCc2nc3cccnc3n2Cc2ccccc2Cl)cc1	inactive: -9.84%
CCCOc1ccc(CNC(=O)Cn2cc3c(n2)-c2c(oc(C(=O)N4CCOCC4)c2C)CC3)cc1	inactive: -0.478%
COc1cc(CN(C(=O)COc2ccccc2Cl)c2ccccn2)cc(OC)c1OC	inactive: 0.949%
CCn1c(C)c(C)c2cc(C(=O)N3CCN(c4cccc(C)c4C)CC3)ccc21	inactive: 2.51%
O=C(CSc1cn(CCNC(=O)c2ccccc2F)c2ccccc12)Nc1ccc(F)cc1	inactive: 8.12%
COc1cccc(N2C(=O)CSC23C(=O)N(CC(=O)Nc2cccc(Cl)c2)c2ccccc23)c1 (stereo not given)	inactive: -25.2%
CCC(CC)C(=O)N1CCc2cc(OC)c(OC)cc2C1COc1ccc(C(=O)OC)cc1 (stereo not given)	inactive: -4.61%
COc1ccc(C)cc1NC(=O)CSc1nc(=O)[nH]c2c1CCCC2	inactive: -20%
CCOc1ccc(-n2c(=O)c3c4c(sc3n(CC(=O)NC(C)CC)c2=O)CCC4)cc1 (stereo not given)	inactive: 1.38%
O=S(=O)(c1ccc(Cl)cc1)c1nnn2c1nc(NCc1cccs1)c1sccc12	inactive: 8.16%
CCOC(=O)c1ccc(N2C(=O)c3n[nH]c(-c4cccs4)c3C2c2cccc(OC)c2)cc1 (stereo not given)	inactive: -5.19%
CN(C)S(=O)(=O)N(CC(=O)NCCSCc1cccc(Cl)c1)c1ccccc1	inactive: 18.4%
Cc1ccc(NC(c2nnc(-c3ccccc3)o2)c2ccccc2F)c([N+](=O)[O-])c1 (stereo not given)	inactive: -10.3%
Cc1ccc(-n2nnnc2CNC(=O)c2ccccc2F)cc1C	inactive: -0.518%
O=C(NCc1ccccc1Cl)c1ccc(CSCc2cccc(F)c2)o1	inactive: -2.64%
